50 compounds from the supplement of paper PMC8183993 can be followed below.

Where “and” joins values, the source holds several entries; their conditions need not be identical. Identical values can stand only once. Counter-ions that a name gives are not always drawn. ± gives the standard deviation of the averaged measurements. In all, about 3,100 compounds were measured (“mean cytoplasmic OPP incorporation (global translation) relative to DMSO”: median about 100, lowest 2% from about 56 on). The list shows a part of the results.

This experiment concerns U2OS. The experiment can be described thus: mean cytoplasmic OPP incorporation (global translation) relative to DMSO (% of DMSO); higher = more protein synthesis. Particulars: 10 µM; 24 h. On the procedure: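 Primary image-based screen in U2OS cells: compounds at 10 uM for 24 h, then a 1 h o-propargyl-puromycin (OPP) pulse, click labelling, and high-throughput microscopy. Mean cytoplasmic OPP intensity and nuclei count were normalised to DMSO wells within each plate (DMSO = 100) and averaged over triplicate plates.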
As to `CCN(CC)CC1CCCCN1CC(=O)N1c2ccccc2C(=O)Nc2cccnc21` (stereo not given), the “mean cytoplasmic OPP incorporation” value was found to be 108.
For the compound `C[C@H](CCC(=O)O)[C@H]1CC[C@H]2[C@@H]3C[C@H](O)[C@@H]4C[C@H](O)CC[C@]4(C)[C@H]3CC[C@]12C` [Hyodeoxycholic acid (HDCA)], the “mean cytoplasmic OPP incorporation” value was 98.3.
Regarding `O=C(Nc1ccccc1)OCC(CN1CCCCC1)OC(=O)Nc1ccccc1` (stereo not given) [Diperodon hydrochloride], the “mean cytoplasmic OPP incorporation” value was determined as 107.
Next, `CC(=O)Nc1ccc(OCC(O)CNC(C)C)cc1` (stereo not given) [Practolol]: 107.
On to `CO/N=C(\C(=O)N[C@@H]1C(=O)N2C(C(=O)O)=C(CSC(=O)c3ccco3)CS[C@H]12)c1csc(N)n1` [Ceftiofur HCl], for which the “mean cytoplasmic OPP incorporation” value came to 99.5.
Next, `N[C@@H]1CCN(O)C1=O`: 97.8; `CN1[C@@H]2CC[C@H]1C[C@@H](OC(c1ccccc1)c1ccccc1)C2` [Benztropine mesylate]: 108 ± 4.4; `O=C1NN(C(=O)Nc2ccc(Br)cc2)[C@@H](c2ccccc2)[C@@H]1c1ccccc1`: 94.8.
`C[C@@H]1O[C@@H](OC[C@H]2O[C@@H](Oc3c(-c4ccc(O)c(O)c4)oc4cc(O)cc(O)c4c3=O)[C@H](O)[C@@H](O)[C@@H]2O)[C@H](O)[C@H](O)[C@H]1O` [Rutin (Rutoside)]: the “mean cytoplasmic OPP incorporation” value was 101.
As to `CCCC(=O)Nc1ccc(OCC(O)CNC(C)C)c(C(C)=O)c1` (stereo not given) [Acebutolol hydrochloride], the “mean cytoplasmic OPP incorporation” value stood at 107.
As to `COc1ccnc2[nH]cc(C(=O)C(=O)N3CCN(C(=O)c4ccccc4)C[C@H]3C)c12`, the “mean cytoplasmic OPP incorporation” value came to 107.
`CC(=O)O[C@]1(C(C)=O)CC[C@H]2[C@@H]3C=C(C)C4=CC(=O)CC[C@]4(C)[C@H]3CC[C@@]21C` [Megestrol acetate]: the “mean cytoplasmic OPP incorporation” value is 102.
For the compound `CC(=O)O[C@]1(C(C)=O)CC[C@H]2[C@@H]3C=C(C)C4=CC(=O)CC[C@]4(C)[C@H]3CC[C@@]21C` [Megestrol Acetate], the “mean cytoplasmic OPP incorporation” value turned out to be 103.
Take `C=C1[C@H](CO)[C@@H](O)C[C@@H]1n1cnc2c(=O)[nH]c(N)nc21` [Entecavir hydrate]: the “mean cytoplasmic OPP incorporation” value came to 101.
`Cc1cccc(C)c1NC(=O)CN1CCN(CCCC(c2ccc(F)cc2)c2ccc(F)cc2)CC1` [Lidoflazine]: the “mean cytoplasmic OPP incorporation” value is 113.
The value for `Nc1nc(=O)[nH]cc1F` [Flucytosine] was 101.
In the case of `Clc1cc(Cl)c(OCC#CI)cc1Cl` [Haloprogin], the “mean cytoplasmic OPP incorporation” value amounted to 104.
In the case of `CCN1CCN(c2ccc(Nc3cc(N(C)C(=O)Nc4c(Cl)c(OC)cc(OC)c4Cl)ncn3)cc2)CC1`, the “mean cytoplasmic OPP incorporation” value amounted to 102.
As for `Oc1cc(O)cc(/C=C/c2ccc(O)c(O)c2)c1` [Piceatannol], the “mean cytoplasmic OPP incorporation” value was 96 ± 11.
Next, `Cc1cc(Nc2cc(CN3CCOCC3)c3nc(C)c(Cc4ccc(Cl)cc4F)n3n2)n[nH]1`: 140.
For the compound `Nc1nnc(-c2cccc(Cl)c2Cl)c(N)n1` [Lamotrigine], the “mean cytoplasmic OPP incorporation” value turned out to be 96.1.
For `CC[C@@]1(O)C(=O)OCc2c1cc1n(c2=O)Cc2cc3c(CN(C)C)c(O)ccc3nc2-1` [Topotecan], the “mean cytoplasmic OPP incorporation” value is 82.7.
Consider `CCCCCS(=O)(=O)CCCCCCCCCCn1c(-c2ccc(O)cc2)c(C)c2cc(O)ccc21`, for which the “mean cytoplasmic OPP incorporation” value stood at 104.
The value for `O=C1c2ccccc2-c2nc3nonc3nc21` was 81.3; that for `NC(C(=O)O)c1ccc(C(=O)O)c(C(=O)O)c1` (racemic) was 91.4 and 107; that for `COc1cc2ncnc(Nc3ccc(O)c(Br)c3)c2cc1OC` was 87 ± 6.
The value for `O=C(O)c1ccc(O)c2ncccc12` was 99.4; that for `O=C1c2ccccc2CCC1CNCCc1ccc(O)cc1` (stereo not given) [HEAT hydrochloride] was 80.9.
The value for `CCCC(=O)Nc1cccc(NC(=O)c2ccccc2Br)c1` was 99.9; that for `CO[C@H]1C[C@@H]2CC[C@@H](C)[C@@](O)(O2)C(=O)C(=O)N2CCCC[C@H]2C(=O)O[C@H]([C@H](C)C[C@@H]2CC[C@H](n3cnnn3)[C@H](OC)C2)CC(=O)[C@H](C)/C=C(\C)[C@@H](O)[C@@H](OC)C(=O)[C@H](C)C[C@H](C)/C=C/C=C/C=C/1C` [Zotarolimus (ABT-578)] was 96.7.
In the case of `O=C(c1ccc(Cl)cc1Cl)n1nnc2ccccc21`, the “mean cytoplasmic OPP incorporation” value amounted to 111.
In the case of `Cc1cccn2c(=O)c(-c3nnn[nH]3)cnc12` [Pemirolast potassium], the “mean cytoplasmic OPP incorporation” value was 97.6.
For `CC[C@H](C)C(=O)O[C@H]1C[C@H](O)C=C2C=C[C@H](C)[C@H](CC[C@@H](O)C[C@@H](O)CC(=O)O)[C@H]21` [Pravastatin sodium], the “mean cytoplasmic OPP incorporation” value came to 103.
The value for `CC[C@H](C)C(=O)O[C@H]1C[C@H](O)C=C2C=C[C@H](C)[C@H](CC[C@@H](O)C[C@@H](O)CC(=O)O)[C@H]21` [Pravastatin] was 99.9; that for `CC[C@H](C)C(=O)O[C@H]1C[C@H](O)C=C2C=C[C@H](C)[C@H](CC[C@@H](O)C[C@@H](O)CC(=O)O)[C@H]21` [Pravastatin sodium salt] was 109.
Next, `O=C1CC2(CCCC2)CC(=O)N1CCCCNCC1COc2ccccc2O1` (stereo not given): 112.
For the compound `CCCc1c(OCCCOc2ccc(OCC(=O)O)cc2)ccc(C(C)=O)c1O`, the “mean cytoplasmic OPP incorporation” value was found to be 100.
The value for `CC1(C)CC(=O)C(C2C3=C(CC(C)(C)CC3=O)Oc3ccccc32)C(=O)C1` (stereo not given) was 107; that for `O=S(=O)(c1cccc2c(Cl)cccc12)N1CCCNCC1` [ML 9 hydrochloride] was 103; that for `CCOCCn1c(N2CCCN(C)CC2)nc2ccccc21` [Emedastine] was 88.6.
Take `CN1CC(=O)N=C1NC(=O)Nc1cccc(Cl)c1` [Fenobam]: the “mean cytoplasmic OPP incorporation” value was determined as 79.3.
Next, `CC(C)(C)OC(=O)Nc1ccc(-c2cc(C(=O)NCCCCCCC(=O)NO)no2)cc1`: 94.1; `Cc1nc(C)c(C)nc1C` [Tetramethylpyrazine]: 96.9; `Nc1nc(Nc2ccccc2)nc2c1ncn2[C@@H]1O[C@H](CO)[C@@H](O)[C@H]1O`: 97.9.
As to `O=C(OCCN1CCCCC1)c1c[nH]c2ccccc12`, the “mean cytoplasmic OPP incorporation” value was 97.2.
Take `Cc1cccc(C)c1NC(=O)C[N+](C)(C)C`: the “mean cytoplasmic OPP incorporation” value was 98.4.
On to `CC(C)(C)NCC(O)COc1cccc2c1CC(O)C(O)C2` (stereo not given) [Nadolol], for which the “mean cytoplasmic OPP incorporation” value was 87.8.
The value for `Cc1ccc(S(=O)(=O)/C=C/C#N)cc1` was 82.2; that for `C[C@H](CCC(=O)NCCS(=O)(=O)O)[C@H]1CC[C@H]2[C@@H]3[C@H](O)C[C@@H]4C[C@H](O)CC[C@]4(C)[C@H]3C[C@H](O)[C@]12C` [Taurocholic acid] was 102.
Next, `Nc1ccccc1NC(=O)c1ccc(CNc2nccc(-c3cccnc3)n2)cc1` [Mocetinostat (MGCD0103)]: 35.5.
